{
  "source": "PubChem BioAssay AID504332",
  "about": "(National Center for Advancing Translational Sciences (NCATS), 2011)",
  "note": "Screen size: about 350,000 compounds; about 31,000 (8.9%) were called active. The shares of active, inactive and inconclusive entries below differ from those in the screen. Calls follow the shape of the dose curve; as a rule, active = well fitted inhibition curve with a large enough effect; inconclusive = small, poorly fitted or top-dose-only effect; inactive = no such curve, though single readings can be large or run the other way. Potencies of inconclusive entries are doubtful fits and often do not repeat. % is scaled to controls: 0 for no effect and ±100 for the full control effect; potency is read from the fitted curve at half-maximal effect; tags tell the direction and shape of the fitted curve.",
  "data": [
    {"target": "Histone-lysine N-methyltransferase EHMT2 (Homo sapiens) (UniProt Q96KQ7)", "sequence (Q96KQ7 whole entry, looked up)": "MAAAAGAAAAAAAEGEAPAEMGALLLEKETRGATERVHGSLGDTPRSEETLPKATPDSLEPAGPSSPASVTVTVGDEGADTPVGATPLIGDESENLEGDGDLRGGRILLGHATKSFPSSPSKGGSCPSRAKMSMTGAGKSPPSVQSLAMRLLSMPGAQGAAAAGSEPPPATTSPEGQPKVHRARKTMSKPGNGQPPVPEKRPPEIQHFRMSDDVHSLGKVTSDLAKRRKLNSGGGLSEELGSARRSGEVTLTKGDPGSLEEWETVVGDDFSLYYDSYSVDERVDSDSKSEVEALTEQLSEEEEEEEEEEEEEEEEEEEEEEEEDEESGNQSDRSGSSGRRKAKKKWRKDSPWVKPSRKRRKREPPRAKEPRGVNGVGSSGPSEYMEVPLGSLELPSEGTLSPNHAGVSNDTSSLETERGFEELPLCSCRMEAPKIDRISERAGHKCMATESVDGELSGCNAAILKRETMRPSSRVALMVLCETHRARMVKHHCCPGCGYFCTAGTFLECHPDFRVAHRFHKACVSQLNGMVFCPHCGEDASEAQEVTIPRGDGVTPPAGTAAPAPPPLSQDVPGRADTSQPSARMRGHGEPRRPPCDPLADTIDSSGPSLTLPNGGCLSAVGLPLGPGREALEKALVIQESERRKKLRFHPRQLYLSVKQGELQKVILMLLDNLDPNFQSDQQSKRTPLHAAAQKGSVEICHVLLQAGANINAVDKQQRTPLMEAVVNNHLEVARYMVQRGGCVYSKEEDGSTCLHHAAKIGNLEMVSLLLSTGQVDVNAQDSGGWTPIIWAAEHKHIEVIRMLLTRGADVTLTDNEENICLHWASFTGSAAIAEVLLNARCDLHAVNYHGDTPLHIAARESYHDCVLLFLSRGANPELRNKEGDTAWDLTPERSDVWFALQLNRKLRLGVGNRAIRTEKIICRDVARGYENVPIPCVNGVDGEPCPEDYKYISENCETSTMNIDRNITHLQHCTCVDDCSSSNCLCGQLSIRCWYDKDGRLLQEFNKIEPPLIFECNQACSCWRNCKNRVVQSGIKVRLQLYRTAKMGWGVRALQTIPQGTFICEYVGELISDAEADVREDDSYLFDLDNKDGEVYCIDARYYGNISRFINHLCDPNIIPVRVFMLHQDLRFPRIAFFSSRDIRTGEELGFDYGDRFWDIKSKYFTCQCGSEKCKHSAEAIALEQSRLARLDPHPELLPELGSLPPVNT", "experiment": "qHTS Assay for Inhibitors of Histone Lysine Methyltransferase G9a; also: nearly all actives have a fitted effect of over 75% in size", "settings": "G9a H3K9 monomethylation, AlphaScreen, 2 h; activity, negative = inhibition: at 59 µM (top of the series) unless noted", "how_it_was_run": "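Signal arises when biotinylated H3K9 peptide, once monomethylated, bridges streptavidin donor and antibody-captured acceptor beads. Enzyme at 20 nM was preincubated 15 min with test compounds; peptide 500 nM and SAM 20 uM then reacted for 2 h.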", "values": [
      {"smiles": "Cc1ccc(CNC(=O)c2cc3sccc3n2Cc2ccc(Cl)cc2)cc1", "Potency": "inconclusive: 35.5 µM [inhibitor, partial curve, poor fit]"},
      {"smiles": "CCCCS(=O)CC(CS(=O)CCCC)OC(=O)c1ccccc1", "note": "(stereo unspecified)", "Potency": "inconclusive: 31.6 µM [inhibitor, single point]"},
      {"smiles": "O=C(Nc1cccc(S(=O)(=O)N2CCCCC2)c1)c1c2c(nc3ccccc13)CCN(Cc1ccccc1)C2", "Potency": "inconclusive: 22.4 µM [inhibitor, single point]"},
      {"smiles": "O=C(N/N=C/c1ccccc1C(=O)O)c1cc(-c2ccc3c4c(cccc24)CC3)n[nH]1", "Potency": "inconclusive: 70.8 µM [inhibitor, partial curve, poor fit]"},
      {"smiles": "O=C(c1cccc([N+](=O)[O-])c1)N1CCN(c2cccc(Cl)c2)CC1", "Potency": "inconclusive: 89.1 µM [inhibitor, single point]"},
      {"smiles": "O=S1(=O)N=C(N(CCO)/N=C/c2ccncc2)c2ccccc21", "Potency": "inconclusive: 44.7 µM [inhibitor, partial curve, poor fit]"},
      {"smiles": "COc1ccc(NC(=O)Cn2nnc(C(=O)Nc3ccc(F)c(Cl)c3)c2N)cc1", "activity, negative = inhibition": "inactive: 13.9%"},
      {"smiles": "O=C(CSc1nccc(=O)[nH]1)N1CCCc2ccccc21", "activity, negative = inhibition": "inactive: 4.65%"},
      {"smiles": "COc1ccc(CN2CCNC(=O)C2CC(=O)NCc2csc(C(C)C)n2)c(OC)c1", "note": "(stereo unspecified)", "Potency": "inconclusive: 79.4 µM [inhibitor, partial curve, poor fit]"},
      {"smiles": "COCC(=O)Oc1c(Sc2ccc(C)cc2)c(C)nn1C(C)(C)C", "Potency": "inconclusive: 31.6 µM [inhibitor, partial curve, poor fit]"},
      {"smiles": "COc1cc(-c2ccno2)ccc1S(=O)(=O)N1CCN(c2cc(C)ccc2C)CC1", "activity, negative = inhibition": "inactive: -35.9%"},
      {"smiles": "COc1cccc(CN2CCNC(=O)C2CC(=O)NCCn2nc(C)cc2C)c1OC", "note": "(stereo unspecified)", "Potency": "inconclusive: 56.2 µM [inhibitor, partial curve, poor fit]"},
      {"smiles": "C/C(=N\\Nc1ccc(S(N)(=O)=O)cc1[N+](=O)[O-])c1ccco1", "activity, negative = inhibition": "inconclusive: -72.8% [inhibitor]"},
      {"smiles": "O=C(O)c1cc2cc(Cl)cc(Cl)c2oc1=O", "Potency": "active: 56.2 µM"},
      {"smiles": "Cc1c(C(=O)Nc2cccc(-c3nnc4n3CCCCC4)c2)oc2ccccc12", "Potency": "inconclusive: 22.4 µM [inhibitor, single point]"},
      {"smiles": "CCC1CCCCN1C(=O)COC(=O)c1ccc(Br)o1", "note": "(stereo unspecified)", "Potency": "inconclusive: 11.2 µM [inhibitor, single point]"},
      {"smiles": "COc1ccccc1OCC(=O)Nc1c2c(nn1-c1ccc(C)cc1)CS(=O)(=O)C2", "Potency": "inconclusive: 89.1 µM [inhibitor, single point]"},
      {"smiles": "Cc1cc(S(=O)(=O)N2CCCC2)ccc1OCC(=O)N1CCC(C(N)=O)CC1", "Potency": "inconclusive: 0.282 µM [inhibitor, partial curve, poor fit]"},
      {"smiles": "Cc1nc2nncn2c(N2CCN(c3ccccc3)CC2)c1C", "activity, negative = inhibition": "inactive: 1.99%"},
      {"smiles": "COc1ccccc1/C=C/c1nc(C#N)c(N2CCCCC2)o1", "Potency": "inconclusive: 11.2 µM [inhibitor, partial curve]"},
      {"smiles": "CCn1c(SCC(=O)Nc2sc3c(c2C#N)CCC(C(C)(C)C)C3)nnc1-c1ccco1", "note": "(stereo unspecified)", "activity, negative = inhibition": "inactive: -32.7% [at 102 µM]"},
      {"smiles": "Cc1ccc(SCC(=O)Nc2ccc3c(c2)OCCO3)cc1", "Potency": "inconclusive: 0.891 µM [inhibitor, partial curve, poor fit]"},
      {"smiles": "O=C(c1ccc(CSc2ccccc2)cc1)N1CCN(c2ccccc2)CC1", "Potency": "inconclusive: 79.4 µM [inhibitor, partial curve, poor fit]"},
      {"smiles": "c1cncc(Nc2nc(-c3cccnc3)cs2)c1", "Potency": "inconclusive: 39.8 µM [inhibitor, single point]"},
      {"smiles": "CC1(C)OC(=O)C=C(CC2NS(=O)(=O)OC3CCCCC23)O1", "note": "(stereo unspecified)", "Potency": "inconclusive: 79.4 µM [inhibitor, single point]"},
      {"smiles": "Cc1ccc(N=C2NC(=O)/C(=C/c3cn(C)c4ccccc34)S2)cc1C", "Potency": "inconclusive: 10 µM [inhibitor, single point]"},
      {"smiles": "CN1CCN(C(=S)NC(=O)/C=C/c2ccccc2)CC1", "Potency": "active: 50.1 µM"},
      {"smiles": "Cc1ccc(NC(=O)c2ccc(Cl)c(S(=O)(=O)N3CCCCCC3)c2)nc1", "activity, negative = inhibition": "inactive: 0.822% [at 102 µM]"},
      {"smiles": "[O-]/C(=C(\\C(=S)NCc1ccc2c(c1)OCO2)[n+]1ccccc1)c1ccc(Cl)s1", "Potency": "active: 28.2 µM"},
      {"smiles": "COc1cc(NC(=O)Cc2ccc(S(=O)(=O)N3CCOCC3)s2)c(OC)cc1Cl", "Potency": "inconclusive: 79.4 µM [inhibitor, partial curve]"},
      {"smiles": "COCCNC(=O)c1cnn(-c2ccc(C)cc2C)c1C1CCN(C(=O)OC(C)(C)C)CC1", "activity, negative = inhibition": "inactive: -2.85%"},
      {"smiles": "CCCn1c(N)c(C(=S)NC(=O)C2CC2)c(=O)n(C)c1=O", "activity, negative = inhibition": "inactive: 52.2%"},
      {"smiles": "O=C(COC(=O)Cc1ccc(S(=O)(=O)N2CCOCC2)s1)NCc1ccc(Cl)cc1", "Potency": "inconclusive: 28.2 µM [inhibitor, single point]"},
      {"smiles": "O=C1c2ccccc2C(=O)C12OC2c1ccc(Cl)cc1Cl", "note": "(stereo unspecified)", "Potency": "inconclusive: 28.2 µM [inhibitor, single point]"},
      {"smiles": "Cc1cc(C)nc(NS(=O)(=O)c2ccc(NC(=O)COc3ccc(Cl)cc3C)cc2)n1", "Potency": "active: 10 µM"},
      {"smiles": "O=C(c1ccco1)N1CCN(C(=O)N2CCOCC2)CC1", "activity, negative = inhibition": "inconclusive: -70.3% [inhibitor] [at 102 µM]"},
      {"smiles": "O=c1[nH]c(=S)[nH]nc1Cc1ccccc1", "Potency": "active: 39.8 µM"},
      {"smiles": "CC1CN(C(=O)Nc2ccc(C(=O)NCCc3ccccc3)cc2)c2ccccc2S1", "note": "(stereo unspecified)", "Potency": "inconclusive: 0.126 µM [inhibitor, partial curve, poor fit]"},
      {"smiles": "C=C(C)C(=O)Nc1cccc(C2=NOC3(C2)C[C@@H](C(N)=O)N(C(=O)c2ccc(OC)cc2)C3)c1", "note": "(stereo partly specified)", "activity, negative = inhibition": "inconclusive: -166% [inhibitor] [at 12.7 µM]"},
      {"smiles": "O=C(CNS(=O)(=O)c1ccc(Br)s1)NCC1COc2ccccc2O1", "note": "(stereo unspecified)", "activity, negative = inhibition": "inactive: -4.3% [at 102 µM]"},
      {"smiles": "COc1ccc(-c2nc3ccccc3c(=O)n2NC(=S)N(C)C)cc1", "Potency": "active: 7.08 µM"},
      {"smiles": "CCn1c2ccc(C)cc2c2nnc(NN)nc21", "Potency": "active: 50.1 µM"},
      {"smiles": "COc1ccc(-n2ccnc(NCc3ccc(Cl)cc3)c2=O)cc1", "activity, negative = inhibition": "inactive: 10.5%"},
      {"smiles": "CN1CCN(C(CNC(=O)C(=O)NC2CCCC2)c2ccc(F)cc2)CC1", "note": "(stereo unspecified)", "Potency": "inconclusive: 44.7 µM [inhibitor, partial curve]"},
      {"smiles": "Oc1ccc(-c2nc3ccccn3c2NCc2ccco2)cc1", "Potency": "inconclusive: 50.1 µM [inhibitor, partial curve]"},
      {"smiles": "Clc1cccc(N2CCN(c3nc4ccccc4n4cnnc34)CC2)c1", "activity, negative = inhibition": "inactive: -6.6%"},
      {"smiles": "COc1ccc(CCNC(=O)CS(=O)(=O)c2cn(CC(=O)N3CCCC3)c3ccccc23)cc1OC", "Potency": "active: 50.1 µM"},
      {"smiles": "Cc1c(NC(=O)c2cccnc2Cl)c(=O)n(-c2ccccc2)n1C", "activity, negative = inhibition": "inactive: 81.5% [at 102 µM]"},
      {"smiles": "COc1ccc(-n2nc3ccc(NC(=O)c4ccc(-c5cc(Cl)ccc5Cl)o4)cc3n2)cc1", "Potency": "inconclusive: 28.2 µM [inhibitor, single point]"},
      {"smiles": "COc1cccc(CC(=O)Nc2sc3c(c2C(N)=O)CCCC3)c1", "Potency": "active: 39.8 µM"},
      {"smiles": "CC(=C1C(=O)c2ccccc2C1=O)N1CCN(C/C=C/c2ccccc2)CC1", "Potency": "inconclusive: 20 µM [inhibitor, partial curve, poor fit]"},
      {"smiles": "Cc1c(Cl)ccc2sc(NC(=O)c3ccc(S(=O)(=O)N4CCCc5ccccc54)cc3)nc12", "activity, negative = inhibition": "inactive: 0%"},
      {"smiles": "CCCc1cnc2c(c1SCC(=O)N(C)c1ccccc1)c(=O)n(C)c(=O)n2C", "activity, negative = inhibition": "inactive: -9.16%"},
      {"smiles": "CCC(C)(C)n1nnnc1C(c1ccc(N(C)C)cc1)N1CCN(C2CCCCC2)CC1", "note": "(stereo unspecified)", "activity, negative = inhibition": "inconclusive: -94.5% [inhibitor]"},
      {"smiles": "CN(C)c1ccc(C(C(=O)NC2CCCCC2)N(Cc2ccco2)C(=O)c2snc(C(N)=O)c2N)cc1", "note": "(stereo unspecified)", "Potency": "inconclusive: 39.8 µM [inhibitor, single point]"},
      {"smiles": "Cc1c(Cl)cccc1-c1ccc(CNc2ccc3[nH]c(=O)[nH]c3c2)o1", "Potency": "inconclusive: 6.31 µM [inhibitor, partial curve, poor fit]"},
      {"smiles": "c1ccc(-c2nc(-c3ccco3)n3ccccc23)cc1", "Potency": "inconclusive: 56.2 µM [inhibitor, partial curve, poor fit]"},
      {"smiles": "Cc1ccc(NC(=O)CSC(C)C(=O)NCCc2ccccn2)cc1", "note": "(stereo unspecified)", "activity, negative = inhibition": "inactive: -1.06% [at 102 µM]"},
      {"smiles": "CCOC(=O)CNC(=O)c1cc(C)oc1C", "activity, negative = inhibition": "inconclusive: -67.3% [inhibitor]"},
      {"smiles": "CCN(c1cc(C)cc(C)c1)S(=O)(=O)c1nnc(NC(=O)C2CCCCC2)s1", "Potency": "inconclusive: 22.4 µM [inhibitor, single point]"},
      {"smiles": "CC(C)ON([C@@H](C(=O)NO)C(C)C)S(=O)(=O)c1ccc(-c2ccccc2)cc1", "activity, negative = inhibition": "inactive: -0.0386%"},
      {"smiles": "CC(=O)N(C(C)=O)N1C(=O)/C(=C/c2ccc(Cl)cc2)SC1=S", "Potency": "active: 14.1 µM"},
      {"smiles": "Cc1c(N=N/C(C(=O)Nc2ccccc2)=C(/O)c2ccccc2)c(=O)n(-c2ccccc2)n1C", "Potency": "active: 14.1 µM"},
      {"smiles": "CN(C(=O)CSc1nnc(-c2ccncc2)n1Cc1ccccc1)C1CCS(=O)(=O)C1", "note": "(stereo unspecified)", "Potency": "inconclusive: 50.1 µM [inhibitor, partial curve, poor fit]"},
      {"smiles": "CC(=O)c1c(C(C)=O)c(C)n(-c2nc(-c3ccc(C)c(C)c3)c(C)s2)c1C", "activity, negative = inhibition": "inconclusive: -70.4% [inhibitor]"},
      {"smiles": "Cn1cccc1-c1nc2ccc(NC(=O)c3ccccc3)cc2[nH]1", "activity, negative = inhibition": "inconclusive: -86.4% [inhibitor]"},
      {"smiles": "CCCCC(=O)Nc1ccc(NCc2ccc(C)s2)cc1", "Potency": "active: 50.1 µM"},
      {"smiles": "CCn1c(=O)cc(OCC(=O)Nc2ccc(OC)c(OC)c2)c2ccccc21", "activity, negative = inhibition": "inactive: 3.06% [at 102 µM]"},
      {"smiles": "COC(=O)c1sc(NC(=O)c2ccc(C)o2)nc1C", "activity, negative = inhibition": "inactive: 3.42%"},
      {"smiles": "COc1ccc(/C=C2\\CCc3ccccc3C2=O)cc1O", "Potency": "active: 79.4 µM"},
      {"smiles": "CC(OC(=O)c1cccc(-n2cnnn2)c1)C(=O)Nc1cccc(Cl)c1", "note": "(stereo unspecified)", "Potency": "inconclusive: 89.1 µM [inhibitor, single point]"}
    ]}
  ]
}
